Laboratory results as given in PubChem BioAssay AID1240 (Sanford-Burnham Center for Chemical Genomics, 2008).
The whole screen tested about 50,000 compounds, of which about 800 (1.6%) showed an effect of 50% or more. The list shows a part of the results.

What follows are compounds tested against Bcl-2-like protein 10 (Homo sapiens) (UniProt Q9HD36) (assay: TR3 peptide-Bcl-B binding displacers, biochemical primary FP assay, phenotype converters (AID 1240;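 further: 0% = Bcl-B with tracer peptide and DMSO and 100% = tracer peptide lacking Bcl-B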)). Conditions: GST-Bcl-B / FITC-TR3 peptide fluorescence polarization; stronger effect = higher value; compound at 3.75 mg/L.
Sequence of UniProt Q9HD36 (Q9HD36 whole entry, looked up): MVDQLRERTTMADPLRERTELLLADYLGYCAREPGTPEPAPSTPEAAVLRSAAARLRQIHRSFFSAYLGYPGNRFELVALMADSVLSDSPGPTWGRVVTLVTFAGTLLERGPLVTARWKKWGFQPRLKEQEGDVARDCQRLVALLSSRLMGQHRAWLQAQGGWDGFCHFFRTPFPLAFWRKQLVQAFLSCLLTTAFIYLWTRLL

| Compound | displacement [%] |
| --- | --- |
| CCc1ccccc1NC(=O)C1CC2CCC1C2 (stereo unspecified) | -2.1 |
| Cc1ccc(-c2nc(-c3cc4cc([N+](=O)[O-])c(O)cc4oc3=O)cs2)cc1 | -4.8 |
| CC(C)c1ccc(C2/C(=C(\O)c3ccccc3)C(=O)C(=O)N2CCCC(=O)O)cc1 (stereo unspecified) | 4.9 |
| Cc1onc(-c2ccccc2)c1C(=O)Nc1sc(C)c(C)c1C(N)=O | 3.8 |
| O=C(Nc1ccc(Cl)c(Cl)c1)c1cccc2ccccc12 | 10.2 |
| N#Cc1c(-c2ccc(Cl)cc2)nc2n(c1=O)CCS2 | 0.4 |
| O=C(Nc1ccccc1-c1nc2ccccc2[nH]1)c1ccc([N+](=O)[O-])cc1 | 7 |
| Cc1cc(C)c(C(N)=O)c(Nc2cccc(Cl)c2)n1 | -3.9 |
| Cc1ccc(C)c(NC(=O)c2ccccc2F)c1 | 5.1 |
| COCCCNC(=O)c1c(Cl)cccc1Cl | 9 |
| O=C(/C=C/c1cccc([N+](=O)[O-])c1)N1CCN(Cc2ccccc2)CC1 | 0 |
| O=C1NC(=S)N(c2ccc(Br)cc2)C(=O)/C1=C\c1ccc(-c2ccc([N+](=O)[O-])cc2)o1 | 16.2 |
| O=C(/C=C/c1cccc([N+](=O)[O-])c1)Nc1ccc(-c2nc3ccccc3o2)cc1 | -5.2 |
| Cc1ccc(S(=O)(=O)Nc2cc(Sc3nc(C)cc(C)n3)c(O)c3ccccc23)cc1 | -25.1 |
| CCc1nnc(NC(=O)CN2C(=O)/C(=C/c3ccc(OC)c(OC)c3)SC2=S)s1 | 12.6 |
| COc1cc(OC)cc(C(=O)N2CCN(Cc3ccccc3C)CC2)c1 | 12.6 |
| O=C(NCc1ccco1)c1cnn2c1NC(c1ccccc1)CC2C(F)(F)F (stereo unspecified) | 5.6 |
| O=[N+]([O-])c1cc(C(F)(F)F)ccc1N/N=C/c1ccc(F)cc1 | 6.3 |
| Clc1ccccc1-n1nnnc1C(Cl)(Cl)c1nnnn1-c1ccccc1Cl | 6.9 |
| CCSc1nc2ccccc2n1CCC(=O)O | 16.5 |
| COc1c(C(=O)/C=C/c2ccccc2)c(O)c(OC)c2occc12 | -5.1 |
| COc1ccc(-c2nnc(NC(=O)Nc3ccc(Cl)cc3)s2)cc1 | -1.2 |
| CCCC(=O)NS(=O)(=O)c1ccc(NS(=O)(=O)c2ccc(C)cc2)cc1 | 11.6 |
| Nc1nc2ccccc2n1CCOc1ccc(F)cc1 | -3.9 |

| Compound | displacement [%] |
| --- | --- |
| O=C(COc1ccc2ccccc2c1)Nn1cnnc1 | -3.1 |
| O=C(Nc1ccc(-c2nc3ccccc3s2)c(O)c1)c1ccncc1 | 11.4 |
| CSc1nnc2n(C)c(=O)c3c4c(sc3n12)COC(C)(C)C4 | -1.6 |
| O=C(NCc1cccnc1)/C(=C/c1ccc(-c2ccc(Br)cc2)o1)NC(=O)c1ccccc1 | 12.2 |
| CCCOC(=O)C(C)Sc1n[nH]c(=O)[nH]c1=O (stereo unspecified) | -7 |
| O=C(O)c1cccc(Nc2nc(-c3ccc(Cl)cc3)cs2)c1 | -34.4 |
| O=C(c1ccc(F)cc1)N(C1CCCCC1)C1CCCCC1 | 12.4 |
| COC(=O)c1ccc(/C=N/Nc2nc(-c3ccc(C)cc3)cs2)cc1 | 4.8 |
| COc1ccccc1C(=O)N1CCN(Cc2ccccc2[N+](=O)[O-])CC1 | 1.5 |
| O=C(/C=C/c1cccc([N+](=O)[O-])c1)Nc1ccc2oc(-c3ccccc3F)nc2c1 | 7.6 |
| O=C(Oc1cccc(C(=S)N2CCOCC2)c1)c1ccc([N+](=O)[O-])cc1 | 12.1 |
| COc1ccc(Br)cc1C(=O)Nc1cccc(C(F)(F)F)c1 | 9.4 |
| Brc1ccc(-c2nc(Cc3ccccc3)no2)cc1 | 0.2 |
| O=C(N/N=C/c1ccc(O)c(O)c1)Nc1ccccc1 | -14 |
| COCCCNC(=O)CN(c1ccc(OC)cc1OC)S(=O)(=O)c1ccc(C)cc1 | -0.4 |
| CCOC(=O)c1ccccc1NC(=O)CN1C(=O)c2ccccc2C1=O | 3.5 |
| CCOC(=O)/C(C#N)=C/N1CCOCC1 | 0.8 |
| Cc1nnc(NC(=O)C(C)Oc2ccc(Cl)cc2Cl)s1 (stereo unspecified) | -5.6 |
| O=C(c1cccc(N2C(=O)C3C4C=CC(C4)C3C2=O)c1)c1cccc(N2C(=O)C3C4C=CC(C4)C3C2=O)c1 (stereo unspecified) | 1.4 |
| CCOc1ccc(/C=C2\C(=O)NC(=O)N(c3ccc(Cl)cc3)C2=O)cc1 | -7.2 |
| COc1ccc(C2CC(=O)C3=C(C2)Nc2ccccc2N(C(C)=O)C3c2ccc(OC)c(OC)c2)cc1 (stereo unspecified) | -9.5 |
| CC1(C(=O)N/N=C/c2cccnc2)CC1(Br)Br (stereo unspecified) | 2.6 |
| CC(C)CC1CCCCC1OC(=O)CN1CCCCC1 (stereo unspecified) | -23.6 |
| CC(C)(C)c1ccc(/C=C2\NC(=S)N(c3ccccc3)C2=O)cc1 | -31.7 |

| Compound | displacement [%] |
| --- | --- |
| Cc1cc(C(=O)Nc2ccc(C(=O)O)cc2)c(C)o1 | 11.2 |
| Cc1ccc(N2C(=O)/C(=C/c3cccs3)SC2=S)cc1C | 15.2 |
| O=C(/C=C/c1ccc(Cl)cc1)NCCN1CCOCC1 | 3 |
| CCCc1nnc(NC(=O)c2cccc(OCC)c2)s1 | 6.1 |
| Cc1cc(C)nc(SCC(=O)Nc2ccccc2F)n1 | -6 |
| Cc1ccc(NC(=O)CN(c2ccc(C(C)C)cc2)S(=O)(=O)c2ccccc2)c(C)c1 | 5.6 |
| CC(C)c1ccc(-c2nnc(N)s2)cc1 | 6.6 |
| Cc1cccc(NC(=O)c2ccc3ccccc3n2)c1 | 1.9 |
| C=CCn1c2ccccc2c2nnc(SCC(=O)Nc3cc(C)on3)nc21 | 10 |
| NC1=NC(=O)/C(=C\c2cc(Br)ccc2OCc2ccccc2F)S1 | 6.3 |
| O=C(Nc1ccc(S(=O)(=O)N2CCOCC2)cc1)c1ccccc1Cl | 2 |
| CCOC(=O)C1=C(C)N=c2s/c(=C\c3cccc([N+](=O)[O-])c3)c(=O)n2C1c1ccc(C)cc1 (stereo unspecified) | 16.1 |
| Cc1cc(C)nc(SCC(=O)N2c3ccccc3-c3c(ssc3=S)C2(C)C)n1 | 10 |
| COc1cccc2c1CC/C(=C\c1ccc(N(C)C)cc1)C2=O | 11.7 |
| CCOC(=O)C1=C(C)NC(=O)NC1c1ccc(F)c(F)c1 (stereo unspecified) | -2.1 |
| COc1ccc(S(=O)(=O)N(C)C2CCCCC2)cc1 | -6.7 |
| N/C(=N\OC(=O)c1cccc2ccccc12)c1cccc([N+](=O)[O-])c1 | -8.4 |
| O=C(O)C(=O)/C=C(\O)c1ccc(F)cc1 | 12.6 |
| Cc1nc(/N=C(/N)NC(=O)Cc2ccccc2)nc2ccccc12 | 48.4 |
| COc1ccccc1NC(=O)C1=C(C)NC(SCC(N)=O)=C(C#N)C1c1ccco1 (stereo unspecified) | 12.4 |
| O=C(NCCOc1ccccc1)c1sc2ccccc2c1Cl | -9.3 |
| Cc1ccc(NCCC(=O)c2ccc(Br)cc2)cc1C | 10.6 |
| Cc1ccc(N2C(=O)c3ccc(C(=O)O)cc3C2=O)c(C)c1 | 1.6 |
